One experiment deals with HSkMC. Description: cytotoxicity call (relative viability < 0.9). The following applies: 10 µM.
Another experiment has as its system HepG2. Description: cytotoxicity call (relative viability < 0.9). Conditions: 10 µM.
The test system of a further experiment is S. aureus RN4220. Description: growth inhibition call (relative growth <= 0.2). The following applies: 50 µM.

Molecules are shown by their SMILES. Some of the results follow.

As for `O=c1ccn([C@H]2C[C@H](O)[C@@H](CO)O2)c(=O)[nH]1`, the cytotoxicity call in the experiment on HSkMC and in the experiment with HepG2 was “inactive” in each case. Besides, the growth inhibition call in the experiment with S. aureus RN4220 was “inactive”.

With `C[C@@H]1CCCCO[C@@H](CN(C)C(=O)Nc2ccc3c(c2)OCO3)[C@H](C)CN([C@@H](C)CO)C(=O)c2cc(NS(=O)(=O)c3ccccc3)ccc2O1`, the cytotoxicity call in the experiment with HSkMC and in the experiment with HepG2 was “inactive” each time. Also, the growth inhibition call in the experiment with S. aureus RN4220 is “inactive”.

Regarding `C[C@@H]1CN([C@H](C)CO)C(=O)Cc2cc(NC(=O)Nc3ccc(C(F)(F)F)cc3)ccc2O[C@@H]1CN(C)Cc1ccc(Oc2ccccc2)cc1`, the cytotoxicity call in the experiment on HSkMC and in the experiment with HepG2 was “active” in each case. In the experiment with S. aureus RN4220, the growth inhibition call is “inactive”.

Regarding `C[C@H]1CCCCO[C@@H](CN(C)C(=O)NC2CCCCC2)[C@@H](C)CN([C@@H](C)CO)C(=O)c2cc(NC(=O)C3CCCCC3)ccc2O1`, the cytotoxicity call with HSkMC and in the experiment on HepG2 was “inactive” throughout. In addition, the growth inhibition call in the experiment on S. aureus RN4220 was “inactive”.

As to `CCC(=O)N1CCN=C1SC`, the cytotoxicity call in the experiment with HSkMC and in the experiment with HepG2 was “inactive” throughout. Besides, in the experiment on S. aureus RN4220, the growth inhibition call was “inactive”.

Take `CCCCC[C@H]1C[C@H]1C[C@H]1C[C@H]1CCCCCCCC(=O)O`: the cytotoxicity call in the experiment with HSkMC and with HepG2 was “inactive” throughout. Moreover, in the experiment with S. aureus RN4220, the growth inhibition call was “inactive”.

For `C[C@@H]1CCCCO[C@H](CN(C)Cc2ccc(C(F)(F)F)cc2)[C@@H](C)CN([C@H](C)CO)C(=O)c2cc(N(C)C)ccc2O1`, the cytotoxicity call in the experiment with HSkMC and in the experiment on HepG2 was “inactive” in each case. In the experiment with S. aureus RN4220, the growth inhibition call is “inactive”.

As to `C[C@@H]1CN([C@@H](C)CO)C(=O)c2cc(NC(=O)Nc3ccc(C(F)(F)F)cc3)ccc2O[C@H]1CN(C)Cc1ccc(C(F)(F)F)cc1`, the cytotoxicity call in the experiment on HSkMC and in the experiment on HepG2 was “active” throughout. Moreover, the growth inhibition call in the experiment with S. aureus RN4220 is “inactive”.

`CCOC(=O)N(C)C[C@H]1OCc2cn(nn2)CCCC(=O)N([C@@H](C)CO)C[C@H]1C`: the cytotoxicity call in the experiment with HSkMC and with HepG2 was “inactive” each time. Besides, the growth inhibition call with S. aureus RN4220 was “inactive”.

As to `CN(C)C1C(O)=C(C(N)=O)C(=O)C2(O)C(O)=C3C(=O)c4c(O)cccc4C(C)(O)C3C(O)C12.Cl` (configuration not stated), the cytotoxicity call with HSkMC and in the experiment with HepG2 was “inactive” each time. Also, in the experiment with S. aureus RN4220, the growth inhibition call is “inactive”.

Consider `COc1cccc(CNC(=O)C[C@@H]2C=C[C@H](NC(=O)C3CCOCC3)[C@H](CO)O2)c1`, for which the cytotoxicity call in the experiment on HSkMC and with HepG2 was “inactive” throughout. Besides, the growth inhibition call with S. aureus RN4220 is “inactive”.

As to `COc1ccc(NC(=O)Nc2cccc3c2O[C@@H](CN(C)Cc2ccc(Oc4ccccc4)cc2)[C@H](C)CN([C@H](C)CO)C3=O)cc1`, the cytotoxicity call in the experiment with HSkMC and in the experiment with HepG2 was “inactive” in each case. In the experiment on S. aureus RN4220, the growth inhibition call is “inactive”.

Take `C[C@@H]1CN([C@@H](C)CO)C(=O)Cc2cc(NS(C)(=O)=O)ccc2O[C@H]1CN(C)Cc1ccc(C(=O)O)cc1`: the cytotoxicity call in the experiment with HSkMC and in the experiment on HepG2 was “inactive” in each case. Besides, the growth inhibition call with S. aureus RN4220 was “inactive”.

`C[C@@H]1CN([C@@H](C)CO)C(=O)c2cc(NC(=O)Cc3ccccc3)ccc2O[C@@H](C)CCCCO[C@H]1CN(C)C(=O)CCC(F)(F)F`: the cytotoxicity call with HSkMC and in the experiment with HepG2 was “inactive” each time. For the same compound, in the experiment on S. aureus RN4220, the growth inhibition call is “inactive”.

On to `COc1ccc(S(=O)(=O)Nc2ccc3c(c2)CC(=O)N([C@@H](C)CO)C[C@H](C)[C@H](CN(C)CC2CC2)O3)cc1`, for which the cytotoxicity call with HSkMC and with HepG2 was “inactive” in each case. Besides, the growth inhibition call with S. aureus RN4220 was “inactive”.

Consider `OCCN(CCO)c1nc2ccccc2[nH]1`, for which the cytotoxicity call with HSkMC and in the experiment on HepG2 was “inactive” in each case. Also, the growth inhibition call in the experiment with S. aureus RN4220 was “inactive”.

`CC(C)CC#Cc1ccc2c(c1)O[C@H](CN(C)S(=O)(=O)c1cccc(F)c1)[C@@H](C)CN([C@@H](C)CO)S2(=O)=O`: the cytotoxicity call in the experiment with HSkMC and with HepG2 was “inactive” throughout. Moreover, the growth inhibition call in the experiment with S. aureus RN4220 is “inactive”.

For `C[C@@H]1CN([C@H](C)CO)C(=O)Cc2cc(NC(=O)Cc3cn(C)c4ccccc34)ccc2O[C@H]1CN(C)Cc1ccc(C(=O)Nc2ccccc2N)cc1`, the cytotoxicity call in the experiment on HSkMC and with HepG2 was “inactive” in each case. Further, the growth inhibition call in the experiment on S. aureus RN4220 was “inactive”.

Turning to `CN(C)CCCNC(=O)C[C@H]1CC[C@H]2[C@@H](COC[C@@H](O)CN2S(=O)(=O)c2ccccc2)O1`, the cytotoxicity call with HSkMC and with HepG2 was “inactive” in each case. In addition, the growth inhibition call in the experiment with S. aureus RN4220 is “inactive”.

In the case of `Cc1noc(C)c1S(=O)(=O)N(C)C[C@H]1Oc2ccc(NC(=O)C3CC3)cc2CC(=O)N([C@@H](C)CO)C[C@@H]1C`, the cytotoxicity call in the experiment with HSkMC and with HepG2 was “inactive” throughout. Further, the growth inhibition call in the experiment on S. aureus RN4220 is “inactive”.

For the compound `COCC#Cc1cnc2c(c1)C(=O)N([C@H](C)CO)C[C@H](C)[C@H](CN(C)C(=O)CN1CCOCC1)O2`, the cytotoxicity call in the experiment with HSkMC and in the experiment with HepG2 was “inactive” throughout. In addition, the growth inhibition call in the experiment on S. aureus RN4220 is “inactive”.

As for `C[C@H](CO)N1C[C@H](C)[C@@H](CN(C)S(=O)(=O)c2cccs2)Oc2ccc(NC(=O)c3ccncc3)cc2C1=O`, the cytotoxicity call in the experiment with HSkMC and with HepG2 was “inactive” each time. In addition, the growth inhibition call with S. aureus RN4220 was “inactive”.

Turning to `COc1cccc(S(=O)(=O)N[C@H]2CC[C@@H](CC(=O)NC3CCC3)O[C@H]2CO)c1`, the cytotoxicity call in the experiment with HSkMC and in the experiment with HepG2 was “inactive” throughout. Moreover, in the experiment on S. aureus RN4220, the growth inhibition call is “inactive”.

Consider `COc1cc(C)c(C(=O)O)c(OC(C)=O)c1`, for which the cytotoxicity call with HSkMC and in the experiment with HepG2 was “inactive” each time. Also, the growth inhibition call with S. aureus RN4220 is “inactive”.

As to `CC1(COc2ccc3c(c2)ncn3-c2ccc3cccc(N4CCC(N)CC4)c3n2)COC1`, the cytotoxicity call with HSkMC and in the experiment on HepG2 was “active” in each case. Moreover, the growth inhibition call in the experiment with S. aureus RN4220 was “inactive”.

On to `C[C@@H]1CN([C@@H](C)CO)C(=O)c2c(c3ccccc3n2C)-c2ccccc2CO[C@@H]1CN(C)C(=O)Nc1ccc(F)cc1`, for which the cytotoxicity call in the experiment with HSkMC and with HepG2 was “inactive” throughout. For the same compound, the growth inhibition call with S. aureus RN4220 was “inactive”.

With `CNCc1nncn1C(C)C`, the cytotoxicity call in the experiment with HSkMC and with HepG2 was “inactive” throughout. The growth inhibition call with S. aureus RN4220 was “inactive”.

With `O=C(O)Cn1c(=O)n(CC(=O)O)c2ccccc21`, the cytotoxicity call in the experiment with HSkMC and in the experiment on HepG2 was “inactive” each time. For the same compound, in the experiment with S. aureus RN4220, the growth inhibition call was “inactive”.

On to `Cc1ccc(S(=O)(=O)N2C[C@H](O)COC[C@@H]3O[C@H](CC(=O)N[C@@H]4CCN(Cc5ccccc5)C4)CC[C@H]32)cc1`, for which the cytotoxicity call in the experiment on HSkMC (human skeletal muscle cells) and in the experiment with HepG2 was “inactive” throughout. Also, in the experiment with S. aureus RN4220, the growth inhibition call is “inactive”.
